The list shows a part of the results. Interaction screen of human proteins with wild-type SARS-CoV-2 proteins by split-DHFR complementation in yeast, 1 µg/mL methotrexate. Value = fitness of the pair (three or more lineages) minus that of the viral protein without a human partner, on a scale set by negative (0) and fused positive (1) controls, mean of up to three cultures; higher = more likely to interact. Active = false discovery rate below 0.05 (one-sided t-test) in at least one culture. Nearly all pairs are not hits, and differences among them are mostly noise (correlation between cultures about 0.3); most hits were seen in one culture only. Human sequences are the Swiss-Prot entries looked up by gene name; the clone may be another isoform. NSP2 values were corrected by the authors for a growth advantage. Listed are human proteins with a hit and a random twelfth of the others.
Columns and labels:
Test in all cases: yeast fitness gain over the viral ORF with no human partner (scaled fitness); higher = more likely to interact
SARS-CoV-2 NSP10 = biological target: SARS-CoV-2 NSP10
Method: (§1)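 Split mouse DHFR complementation in pooled diploid yeast: human ORFeome clones carry one fragment and viral ORFs the other; barcoded lineages compete in 1 µg/mL methotrexate and fitness is read by barcode sequencing in up to three cultures.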

SARS-CoV-2 NSP12 = biological target: SARS-CoV-2 NSP12
Method: as §1

SARS-CoV-2 NSP13 = biological target: SARS-CoV-2 NSP13
Method: as §1

SARS-CoV-2 NSP2 = biological target: SARS-CoV-2 NSP2
Method: as §1

SARS-CoV-2 NSP5 = biological target: SARS-CoV-2 NSP5
Method: as §1

SARS-CoV-2 ORF10 = biological target: SARS-CoV-2 ORF10
Method: as §1

SARS-CoV-2 ORF3B = biological target: SARS-CoV-2 ORF3B
Method: as §1

SARS-CoV-2 ORF8 = biological target: SARS-CoV-2 ORF8
Method: as §1

SARS-CoV-2 ORF9B = biological target: SARS-CoV-2 ORF9B
Method: as §1

[1] = biological target: SARS-CoV-2 ORF9Bwu (the 73-codon ORF)
Method: as §1

SARS-CoV-2 S = biological target: SARS-CoV-2 S
Method: as §1

SARS-CoV-2 ORF6 = biological target: SARS-CoV-2 ORF6
Method: as §1

SARS-CoV-2 NSP15 = biological target: SARS-CoV-2 NSP15
Method: as §1

SARS-CoV-2 NSP6 = biological target: SARS-CoV-2 NSP6
Method: as §1

SARS-CoV-2 NSP7 = biological target: SARS-CoV-2 NSP7
Method: as §1

SARS-CoV-2 NSP8 = biological target: SARS-CoV-2 NSP8
Method: as §1

SARS-CoV-2 ORF3A = biological target: SARS-CoV-2 ORF3A
Method: as §1

SARS-CoV-2 ORF7A = biological target: SARS-CoV-2 ORF7A
Method: as §1

SARS-CoV-2 ORF7B = biological target: SARS-CoV-2 ORF7B
Method: as §1

Measured: yeast fitness gain

B1: JOSD2, Q8TAC2 (protein)
chain: MSQAPGAQPSPPTVYHERQRLELCAVHALNNVLQQQLFSQEAADEICKRLAPDSRLNPHRSLLGTGNYDVNVIMAALQGLGLAAVWWDRRRPLSQLALPQVLGLILNLPSPVSLGLLSLPLRRRHWVALRQVDGVYYNLDSKLRAPEALGDEDGVRAFLAAALAQGLCEVLLVVTKEVEEKGSWLRTD
inactive: SARS-CoV-2 NSP10 = 0.042 | SARS-CoV-2 NSP12 = 0.025 | SARS-CoV-2 NSP13 = -0.0543 | SARS-CoV-2 NSP2 = -0.266 | SARS-CoV-2 NSP5 = 0.0558 | SARS-CoV-2 ORF10 = -0.0826 | SARS-CoV-2 ORF3B 0.0271 | SARS-CoV-2 ORF8 = -0.0251 | SARS-CoV-2 ORF9B 0.0411 | [1] -0.259 | SARS-CoV-2 S -0.00568

B2: MFAP3L, O75121 (protein)
chain: MDRLKSHLTVCFLPSVPFLILVSTLATAKSVTNSTLNGTNVVLGSVPVIIARTDHIIVKEGNSALINCSVYGIPDPQFKWYNSIGKLLKEEEDEKERGGGKWQMHDSGLLNITKVSFSDRGKYTCVASNIYGTVNNTVTLRVIFTSGDMGVYYMVVCLVAFTIVMVLNITRLCMMSSHLKKTEKAINEFFRTEGAEKLQKAFEIAKRIPIITSAKTLELAKVTQFKTMEFARYIEELARSVPLPPLIMNCRTIMEEIMEVVGLEEQGQNFVRHTPEGQEAADRDEVYTIPNSLKRSDSPAADSDASSLHEQPQQIAIKVSVHPQSKKEHADDQEGGQFEVKDVEETELSAEHSPETAEPSTDVTSTELTSEEPTPVEVPDKVLPPAYLEATEPAVTHDKNTCIIYESHV
inactive: SARS-CoV-2 NSP10 = -0.045 | SARS-CoV-2 NSP13 = -0.178 | SARS-CoV-2 ORF6 = 0.089

B3: GBP5, Q96PP8 (protein)
chain: MALEIHMSDPMCLIENFNEQLKVNQEALEILSAITQPVVVVAIVGLYRTGKSYLMNKLAGKNKGFSVASTVQSHTKGIWIWCVPHPNWPNHTLVLLDTEGLGDVEKADNKNDIQIFALALLLSSTFVYNTVNKIDQGAIDLLHNVTELTDLLKARNSPDLDRVEDPADSASFFPDLVWTLRDFCLGLEIDGQLVTPDEYLENSLRPKQGSDQRVQNFNLPRLCIQKFFPKKKCFIFDLPAHQKKLAQLETLPDDELEPEFVQQVTEFCSYIFSHSMTKTLPGGIMVNGSRLKNLVLTYVNAISSGDLPCIENAVLALAQRENSAAVQKAIAHYDQQMGQKVQLPMETLQELLDLHRTSEREAIEVFMKNSFKDVDQSFQKELETLLDAKQNDICKRNLEASSDYCSALLKDIFGPLEEAVKQGIYSKPGGHNLFIQKTEELKAKYYREPRKGIQAEEVLQKYLKSKESVSHAILQTDQALTETEKKKKEAQVKAEAEKAEAQRLAAIQRQNEQMMQERERLHQEQVRQMEIAKQNWLAEQQKMQEQQMQEQAAQLSTTFQAQNRSLLSELQHAQRTVNNDDPCVLL
inactive: SARS-CoV-2 NSP10 = -0.0569 | SARS-CoV-2 NSP12 = -0.0657 | SARS-CoV-2 NSP13 = -0.105 | SARS-CoV-2 NSP15 = 0.00236 | SARS-CoV-2 NSP2 = -0.261 | SARS-CoV-2 NSP5 = 0.0414 | SARS-CoV-2 NSP6 = 0.027 | SARS-CoV-2 NSP7 = -0.0309 | SARS-CoV-2 NSP8 = 0.0187 | SARS-CoV-2 ORF10 = -0.0731 | SARS-CoV-2 ORF3A -0.0882 | SARS-CoV-2 ORF3B 0.0141 | SARS-CoV-2 ORF6 = 0.0546 | SARS-CoV-2 ORF7A 0.0125 | SARS-CoV-2 ORF7B -0.297 | SARS-CoV-2 ORF8 = -0.242 | SARS-CoV-2 ORF9B 0.0485 | [1] -0.0313 | SARS-CoV-2 S -0.092

B4: PIP5K1A, Q99755 (protein)
chain: MASASSGPSSSVGFSSFDPAVPSCTLSSAASGIKRPMASEVLEARQDSYISLVPYASGMPIKKIGHRSVDSSGETTYKKTTSSALKGAIQLGITHTVGSLSTKPERDVLMQDFYVVESIFFPSEGSNLTPAHHYNDFRFKTYAPVAFRYFRELFGIRPDDYLYSLCSEPLIELCSSGASGSLFYVSSDDEFIIKTVQHKEAEFLQKLLPGYYMNLNQNPRTLLPKFYGLYCVQAGGKNIRIVVMNNLLPRSVKMHIKYDLKGSTYKRRASQKEREKPLPTFKDLDFLQDIPDGLFLDADMYNALCKTLQRDCLVLQSFKIMDYSLLMSIHNIDHAQREPLSSETQYSVDTRRPAPQKALYSTAMESIQGEARRGGTMETDDHMGGIPARNSKGERLLLYIGIIDILQSYRFVKKLEHSWKALVHDGDTVSVHRPGFYAERFQRFMCNTVFKKIPLKPSPSKKFRSGSSFSRRAGSSGNSCITYQPSVSGEHKAQVTTKAEVEPGVHLGRPDVLPQTPPLEEISEGSPIPDPSFSPLVGETLQMLTTSTTLEKLEVAESEFTH
inactive: SARS-CoV-2 NSP10 = 0.0173 | SARS-CoV-2 ORF6 = -0.129
